This is one part of the list. At the low end of the ranking, values are background and their order means little.

For this assay, the system named is T1, GST-NbGlk1(82-244).
T1 sequence: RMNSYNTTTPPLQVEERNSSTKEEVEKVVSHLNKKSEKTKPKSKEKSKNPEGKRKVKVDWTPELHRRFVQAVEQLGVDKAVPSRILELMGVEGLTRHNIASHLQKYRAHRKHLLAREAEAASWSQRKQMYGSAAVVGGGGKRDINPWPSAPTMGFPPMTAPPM
Nature of the assay: protein-binding microarray.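 Also: rank-based score ranging −0.5 to +0.5 with E above 0.45 taken as significant binding.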 Particulars: NbGlk1 is a Golden2-like transcription factor of Nicotiana benthamiana; high values mean tight binding; most listed sequences are background and not binding sites; double strand, one strand shown.
In turn, CAATAGAG had a binding signal of 0.0743 E-score.

Regarding ACTTCTTA, the binding signal amounted to 0.0387 E-score.

Take ATGCCTTC: the binding signal is -0.102 E-score.

As for ATGATGCG, the binding signal was -0.0231 E-score.

For the sequence AACTCTGC, the binding signal is -0.015 E-score.

As to AGGACACG, the binding signal was -0.211 E-score.

Regarding AGAGTGTA, the binding signal is 0.0506 E-score.

Take ACCCGGCC: the binding signal was -0.185 E-score.

In turn, ACGATTAA came in with a binding signal of -0.00945 E-score.

For ACGAGTGC, the binding signal was -0.146 E-score.

For AATAGTAT, the binding signal is -0.048 E-score.

ACGGATCT gave a binding signal of 0.265 E-score.

The sequence ACTTTTCG returned a binding signal of 0.0842 E-score.

With ATAGAGAG, the binding signal is -0.0132 E-score.

The sequence AACCCTAG returned a binding signal of -0.0641 E-score.

Regarding ATGGGTGA, the binding signal was -0.0382 E-score.

ACGAATGG displayed a binding signal of -0.151 E-score.

ACCCCGTG returned a binding signal of -0.145 E-score.

In turn, AAATGTCC registered a binding signal of -0.152 E-score.

Take ACTAGACA: the binding signal is -0.00354 E-score.

In turn, AGACTATC came in with a binding signal of -0.0535 E-score.

ACGTGCAG showed a binding signal of -0.0862 E-score.

AAACCCGA displayed a binding signal of -0.104 E-score.

As to ATAATAAG, the binding signal was found to be 0.093 E-score.

With AGGCAAAT, the binding signal worked out at 0.238 E-score.

CAGCCGAA displayed a binding signal of -0.0499 E-score.

Consider ATAAACCG, for which the binding signal is -0.128 E-score.

As to CACATCAG, the binding signal was -0.0143 E-score.

Sequence ACGAAGCG displayed a binding signal of -0.122 E-score.

For the sequence AGGCTACG, the binding signal was -0.175 E-score.

AGGAGACG: the binding signal was -0.256 E-score.

Regarding AGCATATA, the binding signal amounted to 0.256 E-score.

On to AATGGGGG, for which the binding signal is -0.154 E-score.

AAGGGAGC yielded a binding signal of -0.104 E-score.

The sequence ATTTAGTA displayed a binding signal of 0.182 E-score.

Take ACCTCGGC: the binding signal was -0.258 E-score.

Sequence ACCTCGGG registered a binding signal of -0.115 E-score.

AATGGTGA returned a binding signal of 0.0927 E-score.

AAATTCGT had a binding signal of 0.192 E-score.

As for CACTATCC, the binding signal is 0.136 E-score.

On to ATCGTCAC, for which the binding signal was 0.0447 E-score.

As to AGGATACC, the binding signal was 0.2 E-score.

The sequence AGGAGTGA returned a binding signal of -0.113 E-score.

Consider ACGTCTTC, for which the binding signal is -0.0544 E-score.

AAAACAAA showed a binding signal of 0.0918 E-score.

The sequence CAGCCCAC yielded a binding signal of -0.322 E-score.

AAGTACAG came in with a binding signal of 0.0433 E-score.

As to CAACGCAC, the binding signal was -0.106 E-score.

As to AGCTGTTA, the binding signal is -0.177 E-score.

For the sequence AAACCTAT, the binding signal was -0.0462 E-score.

AATCGGCT registered a binding signal of 0.167 E-score.

Regarding AGATTCAA, the binding signal worked out at 0.186 E-score.

The sequence ACTCGAAG showed a binding signal of -0.1 E-score.

AAACAGTA registered a binding signal of 0.0525 E-score.

Consider AGTATTGA, for which the binding signal turned out to be 0.0844 E-score.

For AGCCCAAG, the binding signal is -0.192 E-score.

In turn, AGAGAATC gave a binding signal of 0.479 E-score.

Consider ACATGAAC, for which the binding signal is -0.073 E-score.

Turning to ATGATGCA, the binding signal is -0.0354 E-score.

The sequence ACTGATCC had a binding signal of -0.00118 E-score.

AACCTACG displayed a binding signal of -0.124 E-score.

Regarding ACCGTGAC, the binding signal was -0.197 E-score.

In turn, AACGGCCA registered a binding signal of -0.205 E-score.

AATGCGAC came in with a binding signal of -0.183 E-score.

On to ATACTTAC, for which the binding signal amounted to 0.139 E-score.

AGGCAGGG showed a binding signal of -0.256 E-score.

The sequence ACTTACAA showed a binding signal of 0.0442 E-score.

AGGGTGTC gave a binding signal of -0.163 E-score.

Sequence AATTAGAA displayed a binding signal of 0.131 E-score.

AACGACTT showed a binding signal of 0.00665 E-score.

For the sequence CAATCGCC, the binding signal turned out to be 0.124 E-score.

AATTGGAA gave a binding signal of 0.0238 E-score.

Take AAGTGCTC: the binding signal is -0.206 E-score.

ATTGTCAC came in with a binding signal of 0.057 E-score.

For AAATTCAG, the binding signal was found to be 0.208 E-score.

Consider ATCTGCAT, for which the binding signal worked out at 0.31 E-score.

AGGATGCC yielded a binding signal of -0.189 E-score.

Consider AGTTGCTG, for which the binding signal was 0.092 E-score.

In the case of ACGGCTTG, the binding signal was -0.22 E-score.

Sequence ATCCTCAA showed a binding signal of 0.322 E-score.

AATCTGGT gave a binding signal of 0.443 E-score.

For ATACCTCC, the binding signal is -0.151 E-score.

ACATGATC registered a binding signal of 0.126 E-score.

In the case of AAGATCAA, the binding signal came to 0.245 E-score.

Regarding AATCGCGT, the binding signal amounted to 0.352 E-score.

The sequence AAAATATA yielded a binding signal of 0.295 E-score.

Turning to CACAAGGC, the binding signal is -0.297 E-score.

As to CAGATTAG, the binding signal stood at 0.0861 E-score.

Sequence ATGGTATA yielded a binding signal of 0.123 E-score.

CAGCCTAG displayed a binding signal of -0.258 E-score.

ACCTATAA displayed a binding signal of -0.0138 E-score.

Regarding ACGCCTAG, the binding signal is -0.0881 E-score.

AAATGGAG registered a binding signal of -0.129 E-score.

Take AAAGACAG: the binding signal was 0.00442 E-score.

On to ATCCTAAG, for which the binding signal was 0.145 E-score.

For the sequence ATGGTCGA, the binding signal was -0.148 E-score.

Sequence AGACGTTC came in with a binding signal of -0.149 E-score.

Regarding CACTTATG, the binding signal stood at 0.0623 E-score.

As for ACCAAAGA, the binding signal is 0.208 E-score.

As for ATCGGAAG, the binding signal was 0.15 E-score.

For CACCGAGG, the binding signal is -0.184 E-score.

As for ACAAACGG, the binding signal was -0.117 E-score.

ACGGTAAG registered a binding signal of -0.0887 E-score.

Consider ATAGTGGA, for which the binding signal came out at 0.119 E-score.

Regarding AAATCACC, the binding signal came to 0.333 E-score.

In turn, AGAAAGTC returned a binding signal of -0.0744 E-score.

Consider AGCTCCTC, for which the binding signal was -0.286 E-score.

AAGTCTAG showed a binding signal of -0.074 E-score.

Sequence AAGTAGTC showed a binding signal of -0.00185 E-score.

Sequence AGAGTCCT gave a binding signal of -0.22 E-score.

In turn, AGGAAACT registered a binding signal of -0.227 E-score.

The sequence ATCTGGAA returned a binding signal of 0.351 E-score.

Take AAGTGGGT: the binding signal was -0.189 E-score.

On to ATGGATGC, for which the binding signal was -0.104 E-score.

Sequence AAGTCTAA came in with a binding signal of -0.0366 E-score.

Sequence CACGCGTC registered a binding signal of -0.0216 E-score.

In the case of ACAAAGCA, the binding signal amounted to 0.0816 E-score.

CAGATCAC came in with a binding signal of 0.171 E-score.

For ACTGTTGG, the binding signal is -0.0845 E-score.

In turn, ATAATGGC displayed a binding signal of -0.0522 E-score.

Consider CAATCAGG, for which the binding signal amounted to 0.294 E-score.

Sequence ACAACCCC yielded a binding signal of -0.139 E-score.

On to AGAGGAAG, for which the binding signal was -0.314 E-score.

ATTAATCA gave a binding signal of 0.119 E-score.

In turn, ACCCAGTG came in with a binding signal of -0.134 E-score.

For ATACCTAC, the binding signal is -0.0143 E-score.

CAAACTGC gave a binding signal of -0.213 E-score.

With AGAGATGC, the binding signal is -0.0595 E-score.

CACTCCTC came in with a binding signal of -0.189 E-score.

AGGATAGA returned a binding signal of -0.0379 E-score.

ACCGGGGG: the binding signal was -0.28 E-score.

Sequence ATCTAAAC returned a binding signal of 0.238 E-score.

The sequence AGGTCTCG displayed a binding signal of -0.307 E-score.

Regarding ATGCATAG, the binding signal was found to be 0.043 E-score.

The sequence ATCATACA had a binding signal of 0.0613 E-score.

For the sequence ATGTCATC, the binding signal is -0.0391 E-score.

Sequence ACGCGACG displayed a binding signal of -0.0867 E-score.

AGCTTAAC had a binding signal of -0.129 E-score.

Turning to ATTCGAGC, the binding signal came to 0.0972 E-score.

On to AGACATAC, for which the binding signal is -0.0531 E-score.

In turn, ATCGAAAC came in with a binding signal of 0.185 E-score.

ACCCCTCG: the binding signal is -0.103 E-score.

As to CAGCGGCG, the binding signal was -0.253 E-score.

CACACGCA had a binding signal of -0.0607 E-score.

The sequence AGTTATGC registered a binding signal of 0.0998 E-score.

ACGGCTTA: the binding signal came out at 0.00347 E-score.

Sequence AGCTTCAT displayed a binding signal of -0.164 E-score.

Regarding AGAGCTGG, the binding signal is -0.165 E-score.

In turn, AATATGCC displayed a binding signal of -0.0147 E-score.

Sequence AGGCCAGG returned a binding signal of -0.262 E-score.

For the sequence AAAGCGTC, the binding signal is -0.0151 E-score.

Sequence AGGTTGAA gave a binding signal of -0.0627 E-score.

ACCGCATG came in with a binding signal of -0.234 E-score.

Turning to AATTTGTG, the binding signal is 0.0667 E-score.

AAATCTAC came in with a binding signal of 0.441 E-score.

For ATAATGAG, the binding signal stood at 0.0965 E-score.

As for AAAAGGTG, the binding signal was -0.137 E-score.

For ACTTGACG, the binding signal was -0.0757 E-score.

ATACGCAT showed a binding signal of 0.204 E-score.

Regarding AGCGAAAG, the binding signal was -0.0853 E-score.

AAGCATAA had a binding signal of -0.00533 E-score.

AACTGGGG gave a binding signal of -0.121 E-score.

ATGTGTTA displayed a binding signal of -0.00268 E-score.

Sequence ATCTGTCG had a binding signal of 0.268 E-score.

As for CAAGGGTA, the binding signal is -0.074 E-score.

CAGCAAGA returned a binding signal of 0.0537 E-score.

AGACTCTA gave a binding signal of -0.144 E-score.

The sequence ATAACCAG displayed a binding signal of -0.134 E-score.

ACTGAGGC registered a binding signal of -0.176 E-score.

Sequence AGAAGATC had a binding signal of 0.383 E-score.

In the case of AGCTCTTA, the binding signal is -0.073 E-score.

The sequence CAAAGTGC came in with a binding signal of -0.195 E-score.

The record behind these values is publication PMC5836133.
